Laboratory results: PubChem BioAssay AID1508642 (National Center for Advancing Translational Sciences (NCATS), 2021)
The campaign covered roughly 43,000 compounds. About 200 (0.47%) were called active. Not shown: some 12% with an inconclusive outcome. The call rests on the fitted dose curve; in most records, active means well fitted cell-killing curve with a large enough effect; inconclusive means small, poorly fitted or top-dose-only effect, or effect the other way; inactive means flat fitted curve, though single readings scatter. Some of the results follow.

Test: Cell viability qHTS assay in S16 Pmp22-F2sN cells; further: nearly all actives have a fitted effect of over 65% in size
Conditions: S16 Pmp22-F2sN Schwann cells (luciferase reporters placed in the Pmp22 gene) viability, CellTiter-Glo, 24 h; series mostly up to 57.5 µM; activity change, negative = cytotoxicity: at the top concentration
Method in brief: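 Luminescence from CellTiter-Glo, read by CCD camera after a 15 min room-temperature incubation, served as the viability signal. Reporter Schwann cells (S16 Pmp22-F2sN) had been treated with pin-transferred compounds for 24 h at 37C.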
On the % scale 0 is the no-effect control and ±100 the full control effect.

**Q.** With `Clc1ccc(-c2nc3c4cnn(-c5ccccc5Br)c4ncn3n2)c(Cl)c1` as the compound, how does the “activity change, negative = cytotoxicity” value read?
**A.** inactive: 13.5%

**Q.** With `CC(C)c1nn2c(=O)cc(COC(=O)c3cccc(NC(=O)c4cccs4)c3)nc2s1` as the compound, how does the “activity change, negative = cytotoxicity” value read?
**A.** inactive: -15.4%

**Q.** With `CCCOc1ccc(-c2nonc2NC(=O)c2cc(OC)c(OC)c(OC)c2)cc1OCCC` as the compound, how does the “activity change, negative = cytotoxicity” value read?
**A.** inactive: -18.9%

**Q.** For `CCc1ccc(C2=NN(CCC(=O)NCCc3ccc(OC)c(OC)c3)C(=O)CC2)cc1`, which “activity change, negative = cytotoxicity” value is on record?
**A.** inactive: 15.2%

**Q.** Which “activity change, negative = cytotoxicity” value does the source give for `Cc1ccc(N2CC(NC(=O)c3cc4ccccc4o3)CC2=O)cc1C` (configuration not stated) here?
**A.** inactive: 0.724%

**Q.** Which “activity change, negative = cytotoxicity” value does the source give for `CCc1ccccc1NC(=O)CCOc1ccccc1` here?
**A.** inactive: 0.449%

**Q.** Which “activity change, negative = cytotoxicity” value does the source give for `COCCNC(=O)c1c[nH]c2ccc(S(=O)(=O)Nc3ccc(F)cc3F)cc2c1=O` here?
**A.** inactive: -2.99%

**Q.** Which “activity change, negative = cytotoxicity” value does the source give for `Cn1ccc2c(OCC(=O)NCc3ccccc3)cccc2c1=O` here?
**A.** inactive: -5.55%

**Q.** With `CCOC(=O)c1cnc2nc(NCc3cccc(Br)c3)[nH]n2c1=O` as the compound, how does the “activity change, negative = cytotoxicity” value read?
**A.** inactive: 2.9%

**Q.** For `CCc1ccccc1NC(=O)Cn1c(=O)n(-c2ccc(CC(=O)NCC3CCCO3)cc2)c(=O)c2ccccc21` (configuration not stated), which “activity change, negative = cytotoxicity” value is on record?
**A.** inactive: -1.73%

**Q.** Which “activity change, negative = cytotoxicity” value does the source give for `COc1ccc(CSc2nc3ccncc3n2CC(=O)Nc2ccc(C)c(F)c2)cc1` here?
**A.** inactive: -2.17%

**Q.** With `Cc1ccccc1C(=O)Nc1ccc2nc(SCC(=O)N3CCc4ccccc43)sc2c1` as the compound, how does the “activity change, negative = cytotoxicity” value read?
**A.** inactive: -1.18%

**Q.** With `COc1ccc(CNC(=O)c2ccc3c(c2)N(Cc2ccc(C)cc2)CCS3)cc1` as the compound, how does the “activity change, negative = cytotoxicity” value read?
**A.** inactive: -1.88%

**Q.** Which “activity change, negative = cytotoxicity” value does the source give for `CCOc1ccc(CNc2nc3nc(C)c(Cc4ccccc4)c(=O)n3[nH]2)cc1` here?
**A.** inactive: -0.41%

**Q.** For `COc1ccc2c(c1)CC(C(=O)Nc1cc(Cl)ccc1C)CO2` (configuration not stated), which “activity change, negative = cytotoxicity” value is on record?
**A.** inactive: -7.49%

**Q.** With `CCc1ccc(CNC(=O)C2Cc3cc(S(=O)(=O)N4CCCCCC4)ccc3N2C(C)=O)cc1` (configuration not stated) as the compound, how does the “activity change, negative = cytotoxicity” value read?
**A.** inactive: 22.7%

**Q.** With `Cc1cn2c(=O)cc(COc3ccc(Cl)cc3)nc2s1` as the compound, how does the “activity change, negative = cytotoxicity” value read?
**A.** inactive: -0.402%

**Q.** Which “activity change, negative = cytotoxicity” value does the source give for `COc1cc(NC(=O)Nc2cccc(-c3noc(C)n3)c2)cc(OC)c1OC` here?
**A.** inactive: -11.3%

**Q.** For `CCOc1ccc(-n2c(=O)c3c(C)c(C)sc3n(CC(=O)N(CC)Cc3ccccc3)c2=O)cc1`, which “activity change, negative = cytotoxicity” value is on record?
**A.** inactive: -17.4%

**Q.** For `Cc1ccc(Cl)cc1NC(=O)Cc1ccc(-n2c(C)nc3cccnc32)cc1`, which “activity change, negative = cytotoxicity” value is on record?
**A.** inactive: -11.3%

**Q.** With `Cc1cccc(NC(=O)C2CCC(CNS(=O)(=O)c3ccc(Br)s3)CC2)c1` (configuration not stated) as the compound, how does the “activity change, negative = cytotoxicity” value read?
**A.** inactive: -8.45%

**Q.** Which “activity change, negative = cytotoxicity” value does the source give for `Cc1ccc(OCC(=O)Nc2ccc(Cl)c(-c3nc4ncccc4o3)c2)c(C)c1` here?
**A.** inactive: 18.9%

**Q.** With `COc1cccc(C2CC(=O)N(c3ccc(F)cc3)C3=C2C(=O)OC3)c1OC` (configuration not stated) as the compound, how does the “activity change, negative = cytotoxicity” value read?
**A.** inactive: -0.362%

**Q.** With `COc1cc(C2c3c(oc4ccccc4c3=O)C(=O)N2c2ccccn2)cc(OC)c1OC` (configuration not stated) as the compound, how does the “activity change, negative = cytotoxicity” value read?
**A.** inactive: -4.26%

**Q.** With `COc1ccc(N(Cc2cccs2)C(=O)c2ccc(OCC(C)C)cc2)cc1` as the compound, how does the “activity change, negative = cytotoxicity” value read?
**A.** inactive: -0.426%

**Q.** For `CCCc1nn2c(=O)cc(COC(=O)c3ccccc3NC(=O)c3cccs3)nc2s1`, which “activity change, negative = cytotoxicity” value is on record?
**A.** inactive: -13.4%

**Q.** Which “activity change, negative = cytotoxicity” value does the source give for `Cc1ccc(S(=O)(=O)c2nc(S(C)(=O)=O)sc2N(C)Cc2ccccc2)cc1` here?
**A.** inactive: -0.264%

**Q.** With `Cc1cccc(NC(=O)C2CCC(CNS(=O)(=O)c3csc(C(N)=O)c3)CC2)c1C` (configuration not stated) as the compound, how does the “activity change, negative = cytotoxicity” value read?
**A.** inactive: 25%

**Q.** Which “activity change, negative = cytotoxicity” value does the source give for `COCCCNC(=O)CSc1nc2c(sc3ccccc32)c(=O)n1CCc1ccccc1` here?
**A.** inactive: 20.6%

**Q.** For `COc1cc(NC(=O)CSc2nc3ccccc3nc2Cc2ccc(Cl)cc2)cc(OC)c1`, which “activity change, negative = cytotoxicity” value is on record?
**A.** inactive: 6.32%

**Q.** For `Cc1nc2c(c(C)c1CCC(=O)NCc1ccccc1)c(=O)n(C)c(=O)n2C`, which “activity change, negative = cytotoxicity” value is on record?
**A.** inactive: -1.06%

**Q.** For `CCOC(=O)c1cccc(NC(=O)c2cc3c(-c4cccc(OC)c4)nn(C)c3s2)c1`, which “activity change, negative = cytotoxicity” value is on record?
**A.** inactive: -5.4%

**Q.** Which “activity change, negative = cytotoxicity” value does the source give for `Cc1nn(C)c2c1c(-c1ccccc1)cc(=O)n2CC(=O)Nc1ccccc1C(F)(F)F` here?
**A.** inactive: 3.02%

**Q.** With `COc1ccc(NCc2cc3cc4c(cc3n(CC(=O)Nc3cc(C)cc(C)c3)c2=O)OCO4)cc1` as the compound, how does the “activity change, negative = cytotoxicity” value read?
**A.** inactive: 9.19%

**Q.** Which “activity change, negative = cytotoxicity” value does the source give for `O=C(COc1ccccc1Cl)Nc1nnc(S(=O)(=O)N2CCCCCC2)s1` here?
**A.** inactive: 6.13%

**Q.** With `O=C(NCCCc1nc2ccccc2n1Cc1c(F)cccc1Cl)C1CCCCC1` as the compound, how does the “activity change, negative = cytotoxicity” value read?
**A.** inactive: 2.65%

**Q.** Which “activity change, negative = cytotoxicity” value does the source give for `COc1cccc(Nc2cc(C)nc3nc(-c4ccc(Cl)cc4)nn23)c1` here?
**A.** inactive: 2.48%

**Q.** With `N#Cc1c(N)n(-c2cccc(Cl)c2)c2nc3ccccc3nc12` as the compound, how does the “activity change, negative = cytotoxicity” value read?
**A.** inactive: 15.8%

**Q.** For `Cc1nn2c(=O)cc(COc3ccc(/C=C(\C#N)C(=O)Nc4ccc(F)cc4)cc3)nc2s1`, which “activity change, negative = cytotoxicity” value is on record?
**A.** inactive: -1.57%

**Q.** Which “activity change, negative = cytotoxicity” value does the source give for `CCCCNC(=O)CCCn1c(=O)c2ccccc2n(Cc2cccc(Cl)c2)c1=O` here?
**A.** inactive: -2.9%

**Q.** Which “activity change, negative = cytotoxicity” value does the source give for `Cn1c(CN2CCCCC2)nc2cc(NC(=O)c3ccccc3Cl)ccc21` here?
**A.** inactive: 7%

**Q.** For `Cc1ccc(OCC(=O)Nc2ccc3nc(SCC(=O)N4CCOCC4)sc3c2)cc1`, which “activity change, negative = cytotoxicity” value is on record?
**A.** inactive: 1.58%

**Q.** For `NC(=O)c1nc(Nc2ccccc2)sc1NC(=O)c1ccccc1Br`, which “activity change, negative = cytotoxicity” value is on record?
**A.** inactive: -14.9%

**Q.** For `COc1ccc2nc(NC(=O)c3nc(SC(C)C)ncc3Cl)sc2c1`, which “activity change, negative = cytotoxicity” value is on record?
**A.** inactive: 3.58%

**Q.** For `O=C(NC1CCCC1)c1cc(Nc2cccc(C(F)(F)F)c2)nc2ccccc12`, which “activity change, negative = cytotoxicity” value is on record?
**A.** inactive: 1.13%

**Q.** With `CCC(=O)N1CCc2cc(Br)cc(S(=O)(=O)CCC(=O)N3CCN(c4ccccc4F)CC3)c21` as the compound, how does the “activity change, negative = cytotoxicity” value read?
**A.** inactive: -3.86%

**Q.** Which “activity change, negative = cytotoxicity” value does the source give for `Cc1cc2oc(=O)cc(C)c2c2occ(-c3ccc(Cl)cc3)c12` here?
**A.** inactive: -2.67%

**Q.** Which “activity change, negative = cytotoxicity” value does the source give for `Cc1cccc(N2CCN(C(=O)Cn3ncc4c5ccccc5n(C)c4c3=O)CC2)c1C` here?
**A.** inactive: 8.33%

**Q.** Which “activity change, negative = cytotoxicity” value does the source give for `COc1ccc(C(=O)Nc2ccc(-n3nncc3-c3ccccc3)cc2)cc1OC` here?
**A.** inactive: -25.1%

**Q.** Which “activity change, negative = cytotoxicity” value does the source give for `COc1cc(OC)cc(-c2cc3nc(C)c(CCC(=O)NCc4ccc(Cl)cc4)c(C)n3n2)c1` here?
**A.** inactive: -4.27%

**Q.** For `Cc1ccc(-n2nc(CO)c(C(=O)NCc3cccnc3)n2)cc1`, which “activity change, negative = cytotoxicity” value is on record?
**A.** inactive: 5.21%

**Q.** With `CCc1ccccc1Nc1nc2ccccc2c2nncn12` as the compound, how does the “activity change, negative = cytotoxicity” value read?
**A.** inactive: 0.24%

**Q.** Which “activity change, negative = cytotoxicity” value does the source give for `CCc1ccc(S(=O)(=O)c2cn(Cc3ccccc3)c3cc(F)c(F)cc3c2=O)cc1` here?
**A.** inactive: -1.82%

**Q.** For `Cc1ccc2[nH]c3c(=O)n(CC(=O)N4CCCCC4)ncc3c2c1`, which “activity change, negative = cytotoxicity” value is on record?
**A.** inactive: 4.87%

**Q.** For `Cc1ccc(C)n1-c1nnc(N2CCCC(C(=O)NCc3cccc(F)c3)C2)s1` (configuration not stated), which “activity change, negative = cytotoxicity” value is on record?
**A.** inactive: -14.7%

**Q.** Which “activity change, negative = cytotoxicity” value does the source give for `COc1ccc(OC)c(CNC(=O)C2CCN(c3nc4ccccc4nc3C(F)(F)F)CC2)c1` here?
**A.** inactive: 27.1%

**Q.** For `COc1ccc(CCNC(=O)C(=O)NCC(c2cccs2)S(=O)(=O)c2ccc(C)cc2)cc1` (configuration not stated), which “activity change, negative = cytotoxicity” value is on record?
**A.** inactive: 5.55%

**Q.** With `O=C1c2[nH]nc(-c3ccccc3O)c2C(c2cccc(OCc3ccccc3)c2)N1CCO` (configuration not stated) as the compound, how does the “activity change, negative = cytotoxicity” value read?
**A.** inactive: 0.136%

**Q.** With `CCN(CC)C(=O)Cn1c(=O)n(-c2ccc(Cl)cc2)c(=O)c2c3c(sc21)CCC3` as the compound, how does the “activity change, negative = cytotoxicity” value read?
**A.** inactive: 11.9%

**Q.** Which “activity change, negative = cytotoxicity” value does the source give for `Cc1cn2c(=O)cc(COC(=O)c3cccc(NC(=O)c4ccccc4C)c3)nc2s1` here?
**A.** inactive: -1.72%

**Q.** With `COc1ccc(-n2nc(C)c3c(C(F)(F)F)cc(-c4cccnc4)nc32)cc1` as the compound, how does the “activity change, negative = cytotoxicity” value read?
**A.** inactive: -4.15%

**Q.** For `COc1ccc(C(=O)COC(=O)C(Cc2c[nH]c3ccccc23)NC(=O)c2ccc(C(C)(C)C)cc2)cc1` (configuration not stated), which “activity change, negative = cytotoxicity” value is on record?
**A.** inactive: 3.24%
